Laboratory results: ChEMBL document CHEMBL4888484, “Replenishing the malaria drug discovery pipeline: Screening and hit evaluation of the MMV Hit Generation Library 1 (HGL1) against asexual blood stage Plasmodium falciparum ,using a nano luciferase reporter read-out” (2022)
The whole screen tested about 150,000 compounds, of which about 540 (0.36%) showed an effect of 50% or more. The list shows a part of the results.

The compounds below were run on Plasmodium falciparum (assay: Primary screen in NF54 nanoGlo assay, in single point, at 2uM, 72h; a lower Z score goes with more inhibition). Conditions: timepoint 72 hour.
Assay type: functional, Erythrocyte

Structure (SMILES) | % Inhibition [%] | Z score
COc1ccccc1[C@@H]1CC(c2c(O)n(C)c(=O)n(C)c2=O)=NN1 | 1 | -0.15
CC(C)CCCN1C(=O)C2(Cc3ccccc3N3CCN(c4ccccc4)CC32)C(=O)N=C1O (configuration not stated) | -7 | 0.61
c1cnc2c([C@@H]3NCCc4[nH]cnc43)cnn2c1 | -17 | 1.52
CC(c1ccccc1)C(NC(=O)c1ccn(C(C)C)n1)C(N)=O (configuration not stated) | -9 | 0.97
O=C(Cn1cc(-c2ccc(F)cc2)oc1=O)NCc1ccccc1Cl | -9 | 0.93
CC(C(=O)N1C2CCC1c1ccccc12)n1cncn1 (configuration not stated) | -8 | 1.13
CCc1ccc2ncc(C#N)c(N3CCC(C(=O)N4CCC5(CC4)OCCO5)CC3)c2c1 | -4 | 0.55
O=C(N1CCOCC1)N1C2CCC1c1ccccc12 | -13 | 1.62
CN1CC2CN(c3cc(C4CCC4)ncn3)CC2C1 (configuration not stated) | -10 | 1.29
O=C(NC1(C(Cl)(Cl)Cl)OCCO1)C(Cl)(Cl)Cl | -15 | 2.04
Cc1ccc(NC(=O)NCC2CCN(C(=O)Oc3ccccc3)CC2)cc1C | 0 | 0.04
COc1ccc(C(=O)CN)cc1C(C)C | 3 | -0.36
COc1cccc(-n2c(-c3ccoc3)nc3ccccc3c2=O)c1 | -5 | 0.66
Cc1[nH]c(=O)c(C(=O)Nc2ccc(-c3noc(=O)[nH]3)cc2)cc1-c1ccccc1 | 3 | -0.51
O=S(=O)(F)c1ccc(-c2cn([C@H]3CC[C@@H]3O)nn2)cc1 | 24 | -2.83
CCOc1ccccc1NC(=O)c1ccc2oc(=O)n(Cc3ccc(F)cc3)c2c1 | 2 | -0.31
CCOC(Cn1cc(C(=O)Nc2nc3ccccc3[nH]2)nn1)OCC | -11 | 1.25
N#Cc1ccc(C(=O)N[C@@H]2[C@@H]3CCO[C@@H]3[C@H]2N2CCCC2)cn1 | -2 | 0.3
C[C@H]1CCC(C)(C)N1C(=O)C12CCN(CC1)C2 | -4 | 0.42
Cc1ccc(CC2(CCc3ccncc3)C(=O)NC(=O)NC2=O)s1 | -3 | 0.32
CC(O)(C(=O)N1C2CCC1C(CO)C2)c1ccc(F)cc1 (configuration not stated) | 5 | -0.55
COCC(O)CNC(Cc1cccnc1)c1cccc(Cl)c1 (configuration not stated) | 1 | -0.2

Structure (SMILES) | % Inhibition [%] | Z score
O=C(c1cc(-c2ccc(Br)cc2)nc2ccccc12)N1CCC2(CC1)OCCO2 | 1 | -0.17
CC(C)N1C[C@@H]2OCC(=O)N(Cc3ccccn3)[C@@H]2C1 | 15 | -1.77
CN(C)S(=O)(=O)N1C2CCC1c1ccccc12 | -3 | 0.33
CCCN(CCc1cccc(F)c1)Cc1nc(N(C)C)no1 | -6 | 0.71
O=C(c1cccc(OCC(F)F)n1)N1CCC(Nc2ccccc2F)CC1 | -3 | 0.37
Cc1ccc(C)n1C1CC(C)(C)NC(C)(C)C1 | -5 | 0.97
CN(C)CC#CCNC(=O)NCc1ccccc1 | -4 | 0.7
CC(C)n1cnc(C(=O)NCC2CCCCCC2)c1 | -11 | 1.85
CN1C(=O)c2cccnc2O[C@H]2CN(Cc3ccncc3F)C[C@H]21 | -8 | 1.22
Cc1ccc(C(=O)N2CC3(C[C@@H](C(=O)NC(C)C)N(C)C3)C2)cn1 | -14 | 1.66
O=C(Nc1cccc(-c2noc(=O)[nH]2)c1)c1ccccc1C(=O)c1ccc(F)cc1 | -4 | 0.73
O=C(c1cccnc1)N1C[C@@H](c2ccc(F)cc2)[C@@H]2[C@H]1C1CCN2CC1 | -13 | 2.41
CC[C@@H](Cc1ccc(C)cc1)N(C)CC(=O)NC(N)=O | -17 | 2.23
CN1CCC[C@]2(C(=O)O)CN(c3ncccc3Cl)CC[C@@H]12 | 1 | -0.12
Cc1csc(CNC(=O)C2CC3CCC2N3C(=O)C2CCC(F)(F)CC2)n1 (configuration not stated) | -6 | 0.73
CC(C)c1cccc(OC23CCCN(CC2)C3)c1 (configuration not stated) | -6 | 1.2
COc1c(C)[nH]cc(CN(C)c2nc(C(C)C)ns2)c1=O | -10 | 1.62
FC(F)(F)c1cc(N(C2CCNCC2)C2CC2)ncn1 | -2 | 0.4
Cc1cccc(-c2cc(C(=O)N3CCC4(CC3)OCCO4)c3ccc(Cl)c(C)c3n2)c1 | -12 | 1.67
FC(F)(F)c1cccc(C2=CCNCC2)n1 | -7 | 1.28
CCc1nccn1C[C@H](C)NCc1noc(C(N)=O)n1 | -8 | 1.6
c1ccc2c(c1)C1CCC2N1CCCN1CCOCC1 | -5 | 0.43

Structure (SMILES) | % Inhibition [%] | Z score
Cc1ncsc1CN[C@@H](C)Cc1ccccn1 | -17 | 2.16
C[C@@H](Cc1ccco1)N1CCC(C#N)CC1 | -18 | 2.32
CC(C)N1C2CCC1CN(Cc1ccncc1)CC2 (configuration not stated) | -11 | 1.53
O=c1[nH]c2ccc(S(=O)(=O)Nc3ccc4c(c3)OC3(CCCCC3)O4)cc2o1 | -7 | 1.29
O=C(c1cc2c(s1)CCCCCC2)N1CCC2(CC1)OCCO2 | 8 | -0.96
CN1CCN(C(=O)Cc2ccc3c(c2)OCO3)C[C@]12CCNC(=O)CC2 | -10 | 1.68
CC[C@@H](Cc1ccccc1)N(C)Cc1nc(N)nc(N(C)C)n1 | 30 | -3.45
Cc1ccc([C@H]2CN(C(=O)c3[nH]cnc3C)[C@@H]3C4CCN(CC4)[C@H]23)cc1 | -1 | 0.11
Cc1ccc(OCC(=O)N2CCN(C3CCC(c4ccccc4)CC3)CC2)cc1 (configuration not stated) | 26 | -3
Cc1ccc(-c2cn(CC(=O)NCc3ccccc3C)c(=O)o2)cc1 | -15 | 1.52
O=C(Cc1cnc2ccccn12)N1C[C@H]2CC[C@@H](C1)N(Cc1ccccn1)C2 | 34 | -1.8
COc1ccc2c(N3CCC(C(=O)N4CCC5(CC4)OCCO5)CC3)c(C#N)cnc2c1 | 4 | -0.69
FCC1CCN(Cc2cncs2)CC1 | -11 | 1.26
FC1(F)C[C@@H](COc2cccnc2)N(C2CCCCC2)C1 | 24 | -4.05
O=c1nc(CCNS(=O)(=O)C2CC2)[nH]o1 | 10 | -1.84
CN1CC[C@@]2(CCC1=O)CN(c1ncnc3ccsc13)CCN2C | 6 | -1.05
C[C@]12CC[C@H](O)C[C@@H]1CC[C@@H]1[C@@H]2CC[C@@]2(C)[C@H]1CC[C@]2(O)C#N | -7 | 0.96
Cc1ncccc1OC[C@H]1CCCN1C(=O)c1cccc2[nH]c(=O)oc12 | -10 | 1.03
CN(C)c1nc2cc(F)ccc2cc1CNCCc1ccccc1 | -7 | 1.27
NC(=O)OCCNC(=O)Oc1ccc(Cl)cc1Cl | 5 | -0.62
Cc1cc(N2CC3OCCN(Cc4ccccc4)C3C2)nc(C)n1 (configuration not stated) | -18 | 2.78
CN1C[C@@H]2CCCN(S(=O)(=O)c3cncc(F)c3)[C@@H]2C1 | -6 | 1.15

Structure (SMILES) | % Inhibition [%] | Z score
CC(Cc1ccccc1Br)NC[C@@H](C)O (some centres not stated) | -16 | 1.74
COc1cc(CC(=O)N(C)CCN(C)C2CC2)ccc1O | -8 | 1.33
Cn1c(=O)oc2ccc(S(=O)(=O)NC[C@](C)(O)c3ccc(-c4ccccc4)cc3)cc21 | -3 | 0.59
COc1ccc(CNC(=O)C(Cl)(Cl)Cl)cc1 | -10 | 1.43
Cc1nc(N2CCC3CCC(C2)N3C)ccc1Br (configuration not stated) | -2 | 0.33
Cc1ccc(N2C(=O)NC(=O)[C@@]3(Cc4cc(C)ccc4N(C)C3)C2=O)c(C)c1 | 26 | -3.25
Cc1ccc2c(c1)C[C@]1(CN2C)C(=O)N(c2ccc(Br)cc2)C(=O)N=C1O | -11 | 1.22
O=C(c1ccc(=O)[nH]n1)N1C2CCC1c1ccccc12 | 16 | -2.05
Cc1cc(NCCc2c[nH]c(=O)[nH]c2=O)n2nccc2n1 | -11 | 1.27
O=C(CN1CCCC1=O)NCc1ccco1 | -14 | 2.17
COc1ccc(CCC(=O)N2CC[C@@]3(C2)C(=O)N(C)c2ccc(OC)cc23)cc1 | -3 | 0.38
CCC[C@@H](C#N)NS(=O)(=O)c1ccc(S(=O)(=O)F)cc1 | 0 | 0
O=c1[nH]c2cc(N3CCNCC3)ccc2o1 | -18 | 2.2
Cc1nc(CC(=O)N2CC(N3CCCC[C@@H]3C)C2)cs1 | -3 | 0.53
C[C@H](N)Cc1ccc(C(F)(F)F)cc1 | 6 | -0.89
COc1cccc([C@H]2CN(c3cc(C#N)ccn3)[C@@H]3C4CCN(CC4)[C@H]23)c1 | -16 | 3.07
O=C(Cc1ccc(O)c(F)c1)N1C[C@@H]2CC[C@H]1CN(Cc1ccccn1)C2 | 2 | -0.32
COc1cccc(C[C@H](C)NC2CCN(C(=O)Nc3ccccc3)CC2)c1 | -12 | 1.54
CC(C)=CCN1C[C@@H]2CC[C@H]1CN(C(=O)c1cnc(C)[nH]c1=O)C2 | -11 | 1.09
CO[C@H]1[C@@H]2CC[C@H]1CN(Cc1ccc3cc(Cl)ccc3n1)C2 | -3 | 0.44
